In patent US20060057198A1, “Drug delivery from embolic agents” (BIOCOMPATIBLES UK LIMITED, priority 2003, published 2006):

How the values were obtained:
[1] = Loading of salicylic acid into microspheres; assay type: physicochemical
Protocol: A salicylic acid solution of 5 mg/ml in ethanol was prepared from salicylic acid obtained from Sigma Aldrich.

| drug released (10 ml water, 37° C., released in the first 5 minutes) | further release on transfer to fresh water (after 17 hours) | maximum uptake ([1]; after 3-4 hours, 5 mg/ml in ethanol) | uptake ([1]; after 24 hours) | Compound |
| --- | --- | --- | --- | --- |
| 6-9 mg/ml of microspheres | did not bring about any further release |  |  | COc1ccc2cc([C@H](C)C(=O)O)ccc2c1 [Naproxen] |
|  |  | 3-4 mg salicylic acid/ml of microspheres | 2-3 mg/ml of microspheres | O=C(O)c1ccccc1O [salicylic acid] |
